Assay results reported in PubChem BioAssay AID485367 (National Center for Advancing Translational Sciences (NCATS), 2010).
Where “and” joins values, the source holds several entries; their conditions need not be identical. Identical values can stand only once. The whole screen tested about 330,000 compounds, of which about 560 (0.17%) were called active. The shares of active, inactive and inconclusive entries below differ from those in the screen. Calls come from the whole dose curve; as a rule, active = well fitted inhibition curve with a large enough effect; inconclusive = small, poorly fitted or top-dose-only effect, or effect the other way; inactive = flat fitted curve, though single readings scatter. Potencies of inconclusive entries are doubtful fits and often do not repeat.

molecular target: ATP-dependent 6-phosphofructokinase (Trypanosoma brucei brucei) (UniProt O15648); assay: qHTS Assay to Find Inhibitors of T. brucei phosphofructokinase; note: nearly all actives have a fitted effect of over 60% in size;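 for activity, negative = inhibition: 0% = uninhibited 1x PFK enzyme wells and -100% = no-enzyme wells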; details: T. brucei PFK, ADP-Glo luminescence; activity, negative = inhibition: at 57.5 µM (top of the series)
UniProt O15648, sequence (O15648 whole entry, looked up): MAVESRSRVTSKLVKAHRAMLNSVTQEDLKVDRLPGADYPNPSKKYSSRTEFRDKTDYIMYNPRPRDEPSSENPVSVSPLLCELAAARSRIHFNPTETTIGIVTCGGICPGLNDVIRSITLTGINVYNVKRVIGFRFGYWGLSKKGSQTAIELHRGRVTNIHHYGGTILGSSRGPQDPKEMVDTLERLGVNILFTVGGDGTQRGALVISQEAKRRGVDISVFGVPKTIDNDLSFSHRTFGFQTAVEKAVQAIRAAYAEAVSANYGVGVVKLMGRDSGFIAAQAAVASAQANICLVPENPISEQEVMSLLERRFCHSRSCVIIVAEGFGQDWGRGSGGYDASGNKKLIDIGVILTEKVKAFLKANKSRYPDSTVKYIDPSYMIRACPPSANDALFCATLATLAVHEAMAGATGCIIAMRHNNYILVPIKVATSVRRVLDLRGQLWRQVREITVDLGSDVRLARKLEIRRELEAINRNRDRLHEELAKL
Summary of the method: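 PFK 1.25 nM, F6P 0.5 mM, ATP 0.1 mM, 0.1 M TEA pH 8.0, 5 mM MgCl2, 0.01% Tween20, 0.1% BSA; 45 min RT. ADP-Glo readout. qHTS titration up to 57 uM; curves fitted, compounds curve-classed.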
Potency is the fitted concentration of half-maximal effect; tags give direction and shape of the fitted curve.

Structure (SMILES)	Potency	activity, negative = inhibition
O=C(CN1C(=O)/C(=C/c2ccco2)SC1=S)NC1CCS(=O)(=O)C1 (stereo not given)	inconclusive: 37.9 µM [falling, single point]	–
N#CC1=C(N)C(C#N)(C#N)C(c2ccc[nH]2)C2CCCC=C12 (stereo not given)	inconclusive: 30.1 µM [falling, partial curve]	–
Cc1ccc2sc(N(CCCN(C)C)C(=O)c3ccc(S(=O)(=O)N(C)C4CCCCC4)cc3)nc2c1C	–	inactive: 2.84%
O=[N+]([O-])c1ccc(N2CCN(C(=S)c3cccc([N+](=O)[O-])c3)CC2)cc1	active: 19 µM	–
CC(=O)Nc1ccc(-c2nnc(SCc3ccccc3C#N)n2C)cc1	inconclusive: 37.9 µM [falling, single point]	–
O=C1c2ccccc2C(=O)C12OC2c1cccc2ccccc12 (stereo not given)	inconclusive: 16.9 µM [activator, partial curve, poor fit]	–
COc1ccc(CN2C(=O)c3cccnc3C2Nc2cc(Cl)ccc2OC)cc1 (stereo not given)	inconclusive: 21.3 µM [falling, partial curve, poor fit]	–
Cn1c(N)c(N2CCCCC2)c(=O)n(CC(=O)Nc2ccc(Cl)c(Cl)c2)c1=O	–	inactive: 1.07%
O=C(Nc1ccc(-c2nc3ccc(NC(=O)c4cccs4)cc3[nH]2)cc1)c1cccs1	inconclusive: 3.79 µM [falling, partial curve]	–
NC(=O)C1CCN(CC(=O)Nc2ccccc2Sc2ccc(Cl)cc2)CC1	–	inactive: -2.27%
COc1ccccc1NCCC(=O)OCC(=O)NCc1ccco1	inconclusive: 4.26 µM [falling, full curve]	–
O=C(CSc1ncnc2sc3c(c12)CCC3)N1CCOCC1	inconclusive: 37.9 µM [falling, single point]	–
O=C(COC(=O)c1cc(-c2cccc3ccccc23)nc2ccccc12)NC1CCS(=O)(=O)C1 (stereo not given)	–	inactive: -1.94%
CCCCNC(=O)c1cccc2c(=O)c(C)c(-c3ccccc3)oc12	–	inactive: 9.61%
O=C(Nc1ccc2nc(-c3ccc4nc[nH]c4c3)[nH]c2c1)c1cccs1	–	inactive: 23.3%
Cc1cc(NS(=O)(=O)c2ccc(NC(=O)c3cnc4scc(C)n4c3=O)cc2)nc(C)n1	inconclusive: 2.69 µM [activator, full curve]	–
O=C(Nc1cnn(Cc2ccc(Cl)c(Cl)c2)c1)C12CC3CC(CC(C3)C1)C2	inconclusive: 23.9 µM [falling, partial curve]	–
COc1ccccc1CCNC(=O)c1ccc(OC)c(OC2CCN(C(C)C)CC2)c1	–	inactive: 3.27%
Cc1ccc(C)c(OCCCNC2CCCC2)c1C	inconclusive: 37.9 µM [falling, single point]	–
CCN1C(=O)/C(=C2/Sc3ccccc3N2CCCS(=O)(=O)O)SC1=S	inconclusive: 33.8 µM [activator, single point] and inconclusive: 23.9 µM [activator, partial curve]	–
C/C(=N\NC(N)=O)c1ccc(Cl)cc1	inconclusive: 21.3 µM [falling, single point]	–
CCOC(=O)c1cc2cc(OC)ccc2[nH]1	–	inactive: -1.27%
O=C(CCCN1C(=O)/C(=C/c2cccs2)SC1=S)Nc1cccnc1	inconclusive: 19 µM [falling, single point]	–

Structure (SMILES)	Potency	activity, negative = inhibition
CN(C)C(CNC(=O)C1CCN(S(=O)(=O)c2ccccc2)CC1)c1ccccc1 (stereo not given)	–	inactive: 2.73%
O=C(Cc1ccc(-n2c(=O)[nH]c3ccccc3c2=O)cc1)N1CCN(c2cccc(Cl)c2)CC1	inconclusive: 23.9 µM [falling, single point]	–
Oc1ccc2ccccc2c1N=Nc1nccs1	inconclusive: 37.9 µM [falling, single point]	–
CCOC(=O)c1c(/N=C/N(C)C)sc(/C=N/Nc2ccccc2)c1-c1ccc(Cl)cc1	–	inactive: -0.616%
NC(=O)c1ccsc1NC(=O)c1ccc(N2CCCC2=O)cc1	inconclusive: 37.9 µM [activator, single point]	–
O=[N+]([O-])c1cccc(S(=O)(=O)Nc2cccc(-c3ccc(N4CCOCC4)nn3)c2)c1	inconclusive: 0.757 µM [falling, single point]	–
COc1ccc(/C=N/NC(=O)c2ccoc2C)cc1CN1CCN(c2ccc(F)cc2)CC1	–	inactive: -19.7%
COc1ccc(/C=C/C(=O)OCC(=O)NCc2ccco2)cc1OC	inconclusive: 37.9 µM [falling, single point]	–
COc1nccnc1NS(=O)(=O)c1ccc(NCc2cc(Br)ccc2O)cc1	inconclusive: 19 µM [falling, partial curve]	–
Cc1csc(CNc2ncnc3ccc(-c4ccco4)cc23)c1	–	inactive: 1.27%
COc1ccc(C(=O)COC(=O)c2cccnc2Cl)c(OC)c1	–	inactive: -4.65%
CCCC(C)c1nnc(NC(=O)c2cc(C(=O)OC)cc([N+](=O)[O-])c2)s1 (stereo not given)	active: 23.9 µM	–
Cc1ccc(-c2csc(NC(=S)NC(=O)/C=C/c3ccco3)n2)cc1	–	inactive: -19%
CCc1nnc(NS(=O)(=O)c2ccc(NC(=O)Nc3ccc(OC)cc3)cc2)s1	inconclusive: 23.9 µM [falling, single point]	–
COC(=O)/C(=C/N(C)C)C(=O)N1CCN(c2ccc(Cl)c(Cl)c2)CC1	inconclusive: 26.9 µM [falling, single point]	–
COC(=O)Nc1ccc(SCC(=O)c2ccc(Cl)cc2)cc1	inconclusive: 23.9 µM [falling, single point]	–
COc1cc(C(=O)NCc2cc(C)nc3ccccc23)cc(OC)c1OC	–	inactive: -2.18%
C=C(C)C(=O)Nc1cccc(C2=NOC3(C2)C[C@@H](C(N)=O)N(C(=O)/C=C/C=C/C)C3)c1 (stereo not given in full)	active: 3.79 µM	–
O=C(NC(=S)N1CCCc2ccccc21)c1ccc([N+](=O)[O-])cc1	inconclusive: 37.9 µM [activator, single point]	–
O=C(O)COc1ccccc1/C=C1\SC(=Nc2ccc(F)cc2)N(c2ccc(F)cc2)C1=O	inconclusive: 26.9 µM [falling, single point]	–
COc1ccc(NS(=O)(=O)c2ccc(C)c(NC(=O)CN3C(=O)NC4(CCCC4)C3=O)c2)cc1	inconclusive: 26.9 µM [activator, partial curve]	–
COc1ccc2o/c(=N\O)c(C(=O)Nc3ccccc3OC)cc2c1	inconclusive: 3.01 µM [activator, single point]	–
